Test results as given in the supplement of paper PMC8728848.
The list shows a part of the results.

What was measured:
Assay in all cases: glycan array binding signal (z-score within array); higher = stronger binding
Settings in all cases: glycan notation: IUPAC condensed, linker removed; mutation: E227G
[1] = biological target: Gal(b1-3)GlcNAc(b1-2)Man(a1-3)[Gal(b1-3)GlcNAc(b1-2)Man(a1-6)]Man(b1-4)GlcNAc(b1-4)GlcNAc
In short: (§1)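 From the Consortium for Functional Glycomics database, 3228 arrays were curated, keeping only those whose protein sequence was available. Binding is given as a within-array Z-score averaged across arrays sharing a protein sequence and across linkers. Negative Z-scores can be read as non-binding.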

[2] = biological target: Gal(b1-3)GlcNAc(b1-2)Man(a1-3)[Gal(b1-3)GlcNAc(b1-2)Man(a1-6)]Man(b1-4)GlcNAc(b1-4)[Fuc(a1-6)]GlcNAc
In short: as §1

[3] = biological target: Gal(b1-3)GlcNAc(b1-2)Man(a1-3)[GlcNAc(b1-4)][Gal(b1-3)GlcNAc(b1-2)Man(a1-6)]Man(b1-4)GlcNAc(b1-4)GlcNAc
In short: as §1

[4] = biological target: Gal(b1-3)GlcNAc(b1-2)[Gal(b1-3)GlcNAc(b1-6)]Man(a1-6)[Gal(b1-3)GlcNAc(b1-2)Man(a1-3)]Man(b1-4)GlcNAc(b1-4)GlcNAc
In short: as §1

[5] = biological target: Gal(b1-3)GlcNAc(b1-3)Gal(b1-3)GlcNAc
In short: as §1

[6] = biological target: Gal(b1-3)GlcNAc(b1-3)Gal(b1-4)Glc
In short: as §1

[7] = biological target: Gal(b1-3)GlcNAc(b1-3)Gal(b1-4)GlcNAc
In short: as §1

[8] = biological target: Gal(b1-3)GlcNAc(b1-3)Gal(b1-4)GlcNAc(b1-2)Man(a1-3)[Gal(b1-3)GlcNAc(b1-3)Gal(b1-4)GlcNAc(b1-2)Man(a1-6)]Man(b1-4)GlcNAc(b1-4)GlcNAc
In short: as §1

[9] = biological target: Gal(b1-3)GlcNAc(b1-3)Gal(b1-4)GlcNAc(b1-2)[Gal(b1-3)GlcNAc(b1-3)Gal(b1-4)GlcNAc(b1-6)]Man(a1-6)[Gal(b1-3)GlcNAc(b1-3)Gal(b1-4)GlcNAc(b1-2)Man(a1-3)]Man(b1-4)GlcNAc(b1-4)[Fuc(a1-6)]GlcNAc
In short: as §1

[10] = biological target: Gal(b1-3)GlcNAc(b1-3)Gal(b1-4)GlcNAc(b1-3)Gal(b1-4)GlcNAc(b1-2)[Gal(b1-3)GlcNAc(b1-3)Gal(b1-4)GlcNAc(b1-3)Gal(b1-4)GlcNAc(b1-6)]Man(a1-6)[Gal(b1-3)GlcNAc(b1-3)Gal(b1-4)GlcNAc(b1-3)Gal(b1-4)GlcNAc(b1-2)Man(a1-3)]Man(b1-4)GlcNAc(b1-4)[Fuc(a1-6)]GlcNAc
In short: as §1

[11] = biological target: Gal(b1-3)GlcNAc(b1-3)Gal(b1-4)GlcNAc(b1-6)[Gal(b1-3)GlcNAc(b1-3)]Gal(b1-4)Glc
In short: as §1

[12] = biological target: Gal(b1-3)GlcNAc(b1-3)Gal(b1-4)[Fuc(a1-3)]GlcNAc
In short: as §1

[13] = biological target: Gal(b1-3)GlcNAc(b1-3)Gal(b1-4)[Fuc(a1-3)]GlcNAc(b1-6)[Gal(b1-3)GlcNAc(b1-3)]Gal(b1-4)Glc
In short: as §1

[14] = biological target: Gal(b1-3)GlcNAc(b1-3)GalNAc
In short: as §1

[15] = biological target: Gal(b1-3)GlcNAc(b1-6)Gal(b1-4)GlcNAc
In short: as §1

[16] = biological target: Gal(b1-3)GlcNAc(b1-6)GalNAc
In short: as §1

[17] = biological target: Gal(b1-3)GlcNAc(b1-6)[Gal(b1-3)]GalNAc
In short: as §1

[18] = biological target: Gal(b1-3)GlcNAc6S
In short: as §1

[19] = biological target: Gal(b1-3)[Fuc(a1-4)]GlcNAc
In short: as §1

[20] = biological target: Gal(b1-3)[Fuc(a1-4)]GlcNAc(b1-2)Man
In short: as §1

[21] = biological target: Gal(b1-3)[Fuc(a1-4)]GlcNAc(b1-2)Man(a1-3)[Gal(b1-3)[Fuc(a1-4)]GlcNAc(b1-2)Man(a1-6)]Man(b1-4)GlcNAc(b1-4)[Fuc(a1-6)]GlcNAc
In short: as §1

[22] = biological target: Gal(b1-3)[Fuc(a1-4)]GlcNAc(b1-3)Gal(b1-3)[Fuc(a1-4)]GlcNAc
In short: as §1

[23] = biological target: Gal(b1-3)[Fuc(a1-4)]GlcNAc(b1-3)Gal(b1-4)[Fuc(a1-3)]GlcNAc
In short: as §1

[24] = biological target: Gal(b1-3)[Fuc(a1-4)]GlcNAc(b1-6)GalNAc
In short: as §1

[25] = biological target: Gal(b1-3)[GlcNAc(b1-6)]GalNAc
In short: as §1

[26] = biological target: Gal(b1-3)[Neu5Ac(a2-6)]GalNAc
In short: as §1

[27] = biological target: Gal(b1-3)[Neu5Ac(a2-6)]GlcNAc(b1-4)Gal(b1-4)Glc
In short: as §1

[28] = biological target: Gal(b1-3)[Neu5Ac(b2-6)]GalNAc
In short: as §1

[29] = biological target: Gal(b1-4)Gal
In short: as §1

[30] = biological target: Gal(b1-4)GalNAc(a1-3)[Fuc(a1-2)]Gal(b1-4)GlcNAc
In short: as §1

B1: Epa1-NP-mutant-E227G (Candida glabrata), Q6VBJ0 (protein)
chain: MILNPALFLNKCVCIYTTLILLLLTNGGYATSSNDISLASKDPTTFPLGCSPDITTPKKGLSMELYSYDFRKKGSYPCWDAAYLDPNYPRTGYKSHRLLAKVDGVTGNINFYYHATKGCTPQLGHLPASYNYPKPLTMTNFTMLLYGYFRPKVTGFHTFTISADDLLFVNFGAGNAFDCCRRDSSADHFGNYQAYAIWGSKTAKDELTVHLDAGVYYPIRLFYNNRGYDGALSFTFKTESNENTVSDFSEYFFSLDDTEEGCPGLISYDSSCASVKTSKIIGIDYHTETPNENLVPITKTIYHLGIPCTGTTTTPLCGSGFYDPLANKCVTINTSSTSSVTKTTSHTTSKEVSFHSSISSQKTLIPKSIPSPYGPIKSQSIPTEMETSSEISSSEYAFSDVISTPSHSPYTKKHSSLNSSSYTSTVIHSLTSYSISQGIFSTSLSEQNITSKSSTDKFSTATSMSNNITQSSIIISQFSTNNENYTTTSMHTSSDKISTETLNNSISTTTSILFSNSSTILKNNTTIISSDKDTHYHPVNPTIVCSTNKTEIICASITQPSISNSNNHWSSSVLKFNSTTVRSTLPSSAGSNETSINVPFSSSTESNTSTSSTSTSNSKMVRSTLPSSAGSNETSISVPFSSSTESNTSTSSTSTSNSKMVRSTLPSSAGSNETSINVPFSSSTESNTSTSSTSTSNSKTVRSTPFSSAGIIMTSLSQRNNKSASSYASSNSKCYNTADSCRKVHSTPSYLLTSSYTSEGVDYDCSLVSTKLKINDTNCVNNKHTTKSCLKTSVTTTIPTLEIKTARKSSSNTIGLHSYPTSSPNKSISSAPIIGYISSFKTIKTASPSYQTSDLTTITTITSLNNPGSTAVENTHESNDKSRKTSSNDISSKHSVIKETKDAVESSNKSHQTNTLKCSSIIIASSSHNSYESLGGTTLTLTLSKVYSPQNNDTLPFLEISEVNPSRTVLPESSKMMQYLTSTEERNKTARNTIATNIVSISTFHFEGEGNAIRMGYTQLLLMLIGIIVMNIGT
[1]
  glycan array binding signal (z-score): 1.06
[2]
  glycan array binding signal (z-score): -0.114
[3]
  glycan array binding signal (z-score): -0.01
[4]
  glycan array binding signal (z-score): -0.08
[5]
  glycan array binding signal (z-score): -0.112
[6]
  glycan array binding signal (z-score): 0.018
[7]
  glycan array binding signal (z-score): -0.173
[8]
  glycan array binding signal (z-score): 0.08
[9]
  glycan array binding signal (z-score): 0.017
[10]
  glycan array binding signal (z-score): 0.069
[11]
  glycan array binding signal (z-score): 0.421
[12]
  glycan array binding signal (z-score): -0.247
[13]
  glycan array binding signal (z-score): -0.074
[14]
  glycan array binding signal (z-score): -0.236
[15]
  glycan array binding signal (z-score): 4.84
[16]
  glycan array binding signal (z-score): -0.149
[17]
  glycan array binding signal (z-score): 0.096
[18]
  glycan array binding signal (z-score): 2.52
[19]
  glycan array binding signal (z-score): -0.184
[20]
  glycan array binding signal (z-score): 0.106
[21]
  glycan array binding signal (z-score): -0.197
[22]
  glycan array binding signal (z-score): -0.323
[23]
  glycan array binding signal (z-score): -0.141
[24]
  glycan array binding signal (z-score): -0.108
[25]
  glycan array binding signal (z-score): 0.609
[26]
  glycan array binding signal (z-score): 1.35
[27]
  glycan array binding signal (z-score): -0.257
[28]
  glycan array binding signal (z-score): 0.131
[29]
  glycan array binding signal (z-score): -0.248
[30]
  glycan array binding signal (z-score): -0.119
